# Source: PubChem BioAssay (NCATS)
# “And” between values parts separate entries of the source, which are not always exact repeats. Equal values may be shown once. Inconclusive results, whose numbers are uncertain, are shown with a selection of clear calls. For some assays here: Potencies beside an inconclusive call are fits to weak or partial responses and may not hold up. The source made the active and inactive calls. Unless noted, calls come from the whole dose curve; as a rule, active = well fitted curve in the direction sought with a large enough effect; inconclusive = small, poorly fitted or top-dose-only effect, or another doubt; inactive = no such curve, though single readings can be large; an effect the other way counts as inactive or inconclusive.
# Experiments:
# [1] = molecular target: Vitamin D3 receptor (Homo sapiens) (UniProt P11473); experiment: qHTS assay for small molecule antagonists of vitamin D receptor signaling (AID 588541; calls by dose curve;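 note: receptor activated by calcitriol during compound treatment; % is set by controls: 0 for no effect and ±100 for the full control effect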); conditions: HEK293T VDR-UAS-bla, beta-lactamase ratio, antagonist mode; activity change, negative = inhibition: at 76.7 µM (top of the series) unless noted
# [2] = molecular target: Peroxisome proliferator-activated receptor delta (Homo sapiens) (UniProt Q03181); experiment: qHTS assay for small molecule antagonists of peroxisome proliferator-activated receptor delta signaling (AID 588535; active = well fitted inhibition curve with a large enough effect in the signal ratio, with a control signal flat, not every such curve was filed as active; inconclusive = small, poorly fitted or top-dose-only effect, or effect the other way, or a change in a side signal; inactive = no such curve, though single readings can be large or run the other way; the % refers to the signal ratio; note: potency is the fitted concentration of half-maximal effect); conditions: HEK293T PPARd-UAS-bla, beta-lactamase FRET ratio, 18 h; activity change, negative = inhibition: at 76.7 µM (top of the series)
# Sequence of UniProt Q03181 (Q03181 whole entry, looked up): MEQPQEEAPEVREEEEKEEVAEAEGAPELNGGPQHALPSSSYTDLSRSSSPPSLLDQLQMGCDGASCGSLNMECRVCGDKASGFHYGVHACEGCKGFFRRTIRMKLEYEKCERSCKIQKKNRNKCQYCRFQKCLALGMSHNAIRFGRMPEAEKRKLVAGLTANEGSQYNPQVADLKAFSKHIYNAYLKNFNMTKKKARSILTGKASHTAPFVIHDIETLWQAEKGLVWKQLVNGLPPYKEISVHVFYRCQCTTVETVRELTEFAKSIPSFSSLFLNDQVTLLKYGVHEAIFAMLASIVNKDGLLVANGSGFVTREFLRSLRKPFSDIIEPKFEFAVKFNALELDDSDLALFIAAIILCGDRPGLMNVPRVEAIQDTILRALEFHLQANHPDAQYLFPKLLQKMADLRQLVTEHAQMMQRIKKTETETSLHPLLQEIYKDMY
# Method in brief: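 Antagonist-mode beta-lactamase reporter (GeneBLAzer PPAR-delta-UAS-bla) in HEK293T cells, 2% charcoal/dextran FBS, 4000 cells/well. Compound titrations, 18 h at 37 C; CCF4 ratio read, IC50 and efficacy from Hill fits.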
# [3] = molecular target: DNA repair nuclease/redox regulator APEX1 (Homo sapiens) (UniProt P27695); experiment: qHTS Validation Assay for Inhibitors of the Human Apurinic/apyrimidinic Endonuclease 1 (APE1) (AID 1705; note: potency is the fitted concentration of half-maximal effect)
# Sequence of UniProt P27695 (P27695 whole entry, looked up): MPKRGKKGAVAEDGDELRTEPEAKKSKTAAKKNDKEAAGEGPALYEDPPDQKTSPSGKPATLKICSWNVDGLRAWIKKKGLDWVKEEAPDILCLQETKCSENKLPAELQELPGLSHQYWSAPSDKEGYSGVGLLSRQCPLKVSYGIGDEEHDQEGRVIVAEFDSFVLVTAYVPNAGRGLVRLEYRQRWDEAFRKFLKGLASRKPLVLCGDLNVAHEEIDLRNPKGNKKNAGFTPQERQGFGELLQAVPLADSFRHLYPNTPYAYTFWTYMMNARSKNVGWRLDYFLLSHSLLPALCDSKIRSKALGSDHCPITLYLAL
# Method in brief: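 Activity read as rising fluorescence (598 nm emission, 525 nm excitation) from incision of a TAMRA/BHQ-2 duplex carrying a THF abasic site (50 nM). Compound and enzyme sat 15 min at RT before substrate start; signal change between first and third 60-s reads.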
# [4] = molecular target: Glucagon-like peptide 1 receptor (Homo sapiens) (UniProt P43220); experiment: qHTS of GLP-1 Receptor Agonists: LOPAC Validation (AID 624148); conditions: GLP-1R agonist cell assay; activation: at 46.1 µM (top of the series); note: potency is the fitted concentration of half-maximal effect;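 for activation: 0% is about no effect; higher luminescence signal means agonism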
# Sequence of UniProt P43220 (P43220 whole entry, looked up): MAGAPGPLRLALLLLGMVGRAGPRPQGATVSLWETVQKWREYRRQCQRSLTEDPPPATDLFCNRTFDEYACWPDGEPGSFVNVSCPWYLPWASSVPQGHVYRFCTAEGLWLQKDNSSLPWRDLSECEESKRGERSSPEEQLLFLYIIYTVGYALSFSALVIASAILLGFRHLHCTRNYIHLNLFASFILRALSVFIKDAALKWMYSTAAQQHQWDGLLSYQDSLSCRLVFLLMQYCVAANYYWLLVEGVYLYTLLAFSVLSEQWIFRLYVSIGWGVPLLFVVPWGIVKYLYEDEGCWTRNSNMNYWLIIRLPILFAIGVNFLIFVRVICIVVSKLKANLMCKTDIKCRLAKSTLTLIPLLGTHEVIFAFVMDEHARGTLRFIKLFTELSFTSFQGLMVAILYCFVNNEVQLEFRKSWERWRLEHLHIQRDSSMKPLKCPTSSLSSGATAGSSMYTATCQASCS
# Method in brief: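 HEK293 cells stably co-expressing GLP-1R and a cAMP-responsive luciferase reporter, plated 12 hours before compound, then incubated 4-6 hr at 37 deg C. Luminescence read 12 min after detection reagent.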
# [5] = Quantitative High-Throughput drug screen in 47 multiple myeloma cell lines against the NCATS MIPE library collection: Delta47_JCRB cell viability assay (AID 1918925; note: nearly all actives have a fitted effect of over 45% in size)
# Method in brief: (§1)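 Viability readout: CellTiter-Glo luminescence following 5 min room-temperature incubation with reagent. Prior exposure: 48 h, 37C, humidified 5% CO2, 500 cells per well.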
# [6] = Quantitative High-Throughput drug screen in 47 multiple myeloma cell lines against the NCATS MIPE library collection: AMO1_DSMZ cell viability assay (AID 1918927; note: nearly all actives have a fitted effect of over 30% in size; note: potency is the fitted concentration of half-maximal effect); conditions: AMO1 myeloma cells viability, CellTiter-Glo ATP luminescence, 48 h; viability, % of DMSO: at 45.8 µM (top of the series)
# Method in brief: as §1
# [7] = Quantitative High-Throughput drug screen in 47 multiple myeloma cell lines against the NCATS MIPE library collection: Karpas417_ECACC cell viability assay (AID 1918961); conditions: Karpas417 myeloma viability, CellTiter-Glo ATP luminescence, 48 h; viability (% of DMSO): at 45.8 µM (top of the series); note: potency is the fitted concentration of half-maximal effect
# Method in brief: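 Myeloma cell lines, 500 cells per well, exposed to MIPE 4.0 library compounds for 48 h at 37C, 5% CO2. Viability from ATP by CellTiter-Glo luminescence; normalised to DMSO (100%) and media-only (0%) wells.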
# [8] = Quantitative High-Throughput drug screen in 47 multiple myeloma cell lines against the NCATS MIPE library collection: H1112_PLB cell viability assay (AID 1918967; note: potency is the fitted concentration of half-maximal effect; nearly all actives have a fitted effect of over 30% in size)
# Method in brief: as §1
# [9] = Quantitative High-Throughput drug screen in 47 multiple myeloma cell lines against the NCATS MIPE library collection: KMS21BM_JCRB cell viability assay (AID 1918974); note: potency is the fitted concentration of half-maximal effect
# Method in brief: as §1
# [10] = Quantitative High-Throughput drug screen in 47 multiple myeloma cell lines against the NCATS MIPE library collection: MOLP8_DSMZ cell viability assay (AID 1918977); conditions: MOLP8 myeloma viability, CellTiter-Glo ATP luminescence, 48 h; viability (% of control): at 45.8 µM (top of the series); note: nearly all actives have a fitted effect of over 45% in size; note: potency is the fitted concentration of half-maximal effect
# Method in brief: (§2)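 500 cells/well per myeloma line exposed to pinned MIPE 4.0 compounds for 48 h at 37 °C, 5% CO2. Viability read as ATP by CellTiter-Glo luminescence, normalised to DMSO-only (100%) and media-only (0%) wells.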
# [11] = Quantitative High-Throughput drug screen in 47 multiple myeloma cell lines against the NCATS MIPE library collection: SKMM1_PLB cell viability assay (AID 1919863); conditions: SKMM1 myeloma viability, CellTiter-Glo ATP, 48 h; viability: stronger effect = lower value; note: nearly all actives have a fitted effect of over 35% in size; note: potency is the fitted concentration of half-maximal effect
# Method in brief: as §2
# [12] = Quantitative High-Throughput drug screen in 47 multiple myeloma cell lines against the NCATS MIPE library collection: KMS11_JCRBsus cell viability assay (AID 1919873); note: nearly all actives have a fitted effect of over 50% in size; note: potency is the fitted concentration of half-maximal effect
# Method in brief: as §2
# [13] = Quantitative High-Throughput drug screen in 47 multiple myeloma cell lines against the NCATS MIPE library collection: KMS28BM_JCRB cell viability assay (AID 1919874); note: potency is the fitted concentration of half-maximal effect; nearly all actives have a fitted effect of over 35% in size
# Method in brief: as §2
# [14] = High Content Imaging Cell-Based qHTS for Inhibitors of the mTORC1 Signaling Pathway in MEF Cells (AID 2667); note: potency is the fitted concentration of half-maximal effect;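 for activity change, negative = inhibition: Tsc2-/- p53-/- MEFs stably re-expressing wild-type Tsc2 exposed 24 h; plate controls were DMSO wells for no effect and rapamycin control wells for full effect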
# Method in brief: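 WT MEFs (Tsc2-/-, p53-/- re-expressing Tsc2), in DMEM + 10% FBS, were treated with compound for 24 h at 37 C. Cells were then fixed and stained for phospho-rpS6 Ser235/236 with propidium iodide as cell count. Values are % positive cells, with thresholds set against rapamycin-treated cells.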
# [15] = molecular target: Ferritin light chain (Equus caballus) (UniProt P02791); experiment: qHTS Validation Assay for Identification of Novel General Anesthetics (AID 2323); note: potency is the fitted concentration of half-maximal effect
# Sequence of UniProt P02791 (P02791 whole entry, looked up): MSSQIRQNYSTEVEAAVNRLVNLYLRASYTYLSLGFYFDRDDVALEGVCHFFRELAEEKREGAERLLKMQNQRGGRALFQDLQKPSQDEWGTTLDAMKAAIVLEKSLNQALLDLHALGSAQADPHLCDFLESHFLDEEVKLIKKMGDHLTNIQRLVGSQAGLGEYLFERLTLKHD
# Method in brief: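 Competitive displacement of the profluorescent anesthetic 1-AMA (50% saturated, PBS) from 10 uM apoferritin, 10 min, room temperature. Activity is normalized 380/535 nm fluorescence; concentration-response fitted with a four-parameter Hill equation.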
# [16] = qHTS for Inhibitors of ATXN expression: Validation (AID 588378); note: potency is the fitted concentration of half-maximal effect; nearly all actives have a fitted effect of over 75% in size
# Method in brief: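 Luciferase luminescence (Bright-Glo) from an ATXN2-FFLuc HEK293 line after 24 h compound exposure at 37 °C, preceded by a CellTiter-Fluor fluorescence viability read. Serial dilutions of a reference ATXN2 inhibitor and a luciferase inhibitor served as controls.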
# [17] = qHTS to identify inhibitors of the type 1 interferon - major histocompatibility complex class I in skeletal muscle: primary screen against the NCATS LOPAC collection (AID 1347405); conditions: iHSKM muscle cells, IFN-b-induced MHC-I HiBiT luminescence, 24 h; activity change, negative = inhibition: at 45.9 µM (top of the series);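 note: lytic HiBiT luminescence reporting HLA-B protein level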; note: potency is the fitted concentration of half-maximal effect; for activity change, negative = inhibition: % is set by controls: 0 for no effect and ±100 for the full control effect
# Method in brief: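 Luminescence from HiBiT fused to endogenous HLA-B in CRISPR-engineered human myoblasts served as the read-out. Cells received 4.0 ng/ml IFN-beta plus compound (seven concentrations, 1:4.3 steps, highest 46 uM final) for 24 hrs before lytic detection.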
# [18] = molecular target: Bile acid receptor (Homo sapiens) (UniProt Q96RI1); experiment: qHTS assay for small molecule antagonists of farnesoid X receptor signaling (AID 588526; calls by dose curve; note: % is set by controls: 0 for no effect and ±100 for the full control effect); conditions: HEK293T FXR-UAS-bla, beta-lactamase ratio, antagonist mode; activity change, negative = inhibition: at 76.7 µM (top of the series)
# Method in brief: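 Antagonist mode: titrated compounds tested against chenodeoxycholic acid stimulation (normalized to 50 uM CDCA and DMSO) in GeneBLAzer HEK293T cells for 16 h. Beta-lactamase read by CCF4 fluorescence; IC50 from Hill fits.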
# [19] = molecular target: Bile acid receptor (Homo sapiens) (UniProt Q96RI1); experiment: qHTS assay for small molecule agonists of farnesoid X receptor signaling (AID 588527; calls by dose curve; note: potency is the fitted concentration of half-maximal effect;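 for activation: 0% = vehicle basal and 100% = reference agonist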); conditions: HEK293T FXR-UAS-bla, beta-lactamase ratio, 16 h; activation: stronger effect = higher value
# Method in brief: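 Quantitative HTS used FXR-UAS-bla HEK293T cells with 16 h compound incubation at 37 C. EC50 values came from concentration-response curves normalized to chenodeoxycholic acid.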
# [20] = Cell Viability qHTS for small molecule stabilizers of the endoplasmic reticulum resident proteome (AID 1508629); conditions: cell viability counter-screen, 100 nM thapsigargin for final 4 h;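 note: compound exposure about 46 h in total before the viability read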; note: potency is the fitted concentration of half-maximal effect;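 for max response: human SH-SY5Y neuroblastoma cells carrying the GLuc-SERCaMP reporter; % is set by controls: 0 for no effect and ±100 for the full control effect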
# Tags give direction and shape of the fitted curve or compound fluorescence and quenching.
structure (smiles),measurement,setting,value
CC(=O)Nc1ccccc1,Potency,[1],inactive
CCCCCCCC(=O)OCC(COC(=O)CCCCCCC)OC(=O)CCCCCCC,Potency,[2],inactive
CC(C)NCC(O)c1cc(O)cc(O)c1 (stereo unspecified),Potency,[3],"inconclusive: 15.8 µM [inhibitor, single point]"
same,Potency,[4],"inconclusive: 4.61 µM [activator, full curve]"
O=C(O)CCCCC(CCSCc1ccccc1)SCc1ccccc1 (stereo unspecified),Potency,[5],inactive
same,Potency,[6],"inconclusive: 14.8 µM [cytotoxic, partial curve]"
same,Potency,[7],"inconclusive: 20.9 µM [cytotoxic, partial curve, poor fit]"
same,Potency,[8],"inconclusive: 0.0187 µM [cytotoxic, full curve, poor fit]"
same,Potency,[9],"inconclusive: 3.72 µM [cytotoxic, full curve, poor fit]"
same,Potency,[10],inactive
same,viability,[11],inactive: 120%
same,Potency,[12],"inconclusive: 16.6 µM [cytotoxic, partial curve]"
same,Potency,[13],"inconclusive: 13.2 µM [cytotoxic, partial curve]"
O=C(O)CCc1nc(-c2ccccc2)c(-c2ccccc2)o1,Potency,[14],inactive
CC(C)(C)c1ccc(C(O)CCCN2CCC(C(O)(c3ccccc3)c3ccccc3)CC2)cc1 (stereo unspecified),Potency,[15],"inconclusive: 28.2 µM [inhibitor, partial curve]"
same,Potency,[14],"inconclusive: 18.5 µM [falling, partial curve, poor fit]"
same,Potency,[16],"inconclusive: 14.1 µM [inhibitor, partial curve, poor fit]"
same,Potency,[17],"inconclusive: 35.5 µM [inhibitor, single point]"
C1=CC2C3C=CC(C3)C2C1 (stereo unspecified),"activity change, negative = inhibition",[18],inconclusive: -27.4%
same,activation,[19],inactive: -0.353%
C[N+](C)(C)CCCCCC[N+](C)(C)C,Potency,[3],"inconclusive: 39.8 µM [inhibitor, single point]"
same,Potency,[4],inactive
CC1(COc2ccc(CC3SC(=O)NC3=O)cc2)CCCCC1 (stereo unspecified),"activity change, negative = inhibition",[18],inconclusive: -31.5%
same,Potency,[19],"inconclusive: 35.5 µM [activator, partial curve]"
same,Potency,[2],"inconclusive: 17.8 µM [fluorescent, partial curve, poor fit]"
same,"activity change, negative = inhibition",[1],inconclusive: 9.21%
Cc1cn2cc(C(=O)N(C)CCO)cc(N[C@@H]3CCOc4cccc(C)c43)c2n1,Potency,[6],inactive
same,Potency,[8],"inconclusive: 0.264 µM [rising, full curve]"
same,Potency,[10],"inconclusive: 33.2 µM [rising, partial curve, poor fit]"
same,Potency,[11],"inconclusive: 0.166 µM [rising, full curve, poor fit]"
CCOc1ccccc1O[C@H](c1ccccc1)[C@H]1CNCCO1,max response,[20],inactive: 9.87%
CN1[C@@H]2CC[C@H]1CC(OC(=O)c1c[nH]c3ccccc13)C2 (stereo partly specified),Potency,[20],"inconclusive: 126 nM [rising, full curve] and inconclusive: 112 nM [rising, full curve]"
CCC(C)(Oc1ccc(C2(c3ccc(OC(C)(CC)C(=O)O)cc3)CCCCC2)cc1)C(=O)O (stereo unspecified),Potency,[5],inactive
same,Potency,[7],"inconclusive: 0.0015 µM [cytotoxic, full curve, poor fit]"
same,Potency,[9],"inconclusive: 26.4 µM [rising, partial curve, poor fit]"
same,Potency,[12],inactive
same,Potency,[13],"inconclusive: 0.0023 µM [cytotoxic, full curve, poor fit]"
FC(F)(F)c1ccccc1-n1ccnc1,Potency,[17],inactive
O=C1CC(c2ccc(Cl)cc2)CC(=O)N1,max response,[20],inactive: 1.98%
Nc1c2c(nc3ccccc13)CCCC2O (stereo unspecified),Potency,[15],inactive
COCCCC/C(=N\OCCN)c1ccc(C(F)(F)F)cc1,Potency,[16],"inconclusive: 22.4 µM [inhibitor, partial curve, poor fit]"
